Measurements: the supplement of paper PMC12889115
The list shows a part of the results. Single values are uncertain, as repeats are few or missing.

tested on: Salmonella enterica serovar Typhimurium SL1344; test: bacterial growth OD600 after 18 h in MHB with 0.5 µg/mL polymyxin B; higher = more bacterial growth (less inhibition); conditions: 25 µM; polymyxin B 0.5 µg/mL; system: broth
Procedure: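 Secondary screen of the 553 primary hits at 25 µM. (i) S. Typhimurium SL1344 grown in Mueller-Hinton broth with 0.5 µg/mL polymyxin B, OD600 read after 18 h. (ii) SAFIRE assay: RAW 264.7 macrophages infected with S. Typhimurium sifB::gfp (MOI 30); compound added 2 h post-infection; cells fixed at 18 h; GFP-positive pixel fraction per macrophage imaged by confocal microscopy and expressed as % of DMSO control.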
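Note: polymyxin B level opens the outer membrane while sparing the inner membrane, with novobiocin wells as reference growth inhibitor.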

Compound	bacterial growth OD600
OCC1CCCCN1c1ccc(-c2nc(CCc3ccccc3)no2)cn1 (stereo not given)	0.004
Cc1ccn2c(CNCc3ccc4c(c3)OCO4)c(C(=O)N3CCCCCC3)nc2c1	0.516
Cn1c(CNc2nncc(-c3cccc(Cl)c3)n2)nc2ccccc21	0.003
Cc1csc(SCC(=O)N2CCC3(CC2)CC3C(=O)NCCc2nc3ccccc3n2C)n1 (stereo not given)	0.389
O=C(NCCC1=CCCCC1)c1coc(COc2ccccc2)n1	0.198
CO[C@H]1[C@H](NC(=O)c2ccncc2)c2ccccc2C12CCN(C(=O)c1ccc(CC(C)C)cc1)CC2	0.001
CCCCn1c(CN2CCCC(C(C)=O)C2)cnc1S(=O)(=O)CCCC(C)C (stereo not given)	0.018
CC#CCN1C(=O)NC(CCCc2ccccc2)(C2CCN(C(=O)/C=C/c3ccccc3)CC2)C1=O (stereo not given)	0
CC(=O)Nc1ccc(C(=O)N2CCCC(Nc3cccc(F)c3)C2)cc1 (stereo not given)	0.576
O=C(CC1(c2ccc(-c3ccccc3)cc2)CC(=O)N(C2CC2)C1=O)N(CCO)Cc1ccccc1 (stereo not given)	-0.024
COc1ccc(OC)c(-c2cc(Cl)c3c(c2)CC(CNC(=O)c2cc(C)oc2C)O3)c1 (stereo not given)	0.003
C#Cc1cccc(C(=O)N2CCc3onc(-c4cccc(F)c4)c3C2)c1	-0.003
Cc1ccccc1-c1nc(CN2CCOc3ccc(Cl)cc3C2)c(C)o1	-0.011
Cc1nc(N2CCCCCCC2)ncc1C(C)NCc1ccccc1 (stereo not given)	0.004
CCOC(=O)C1(Cc2ccccc2Cl)CCN(Cc2nccn2CC)CC1	0.005
COc1ccc(OCc2cc(C(=O)NC(CO)C(C)C)no2)c2ccccc12 (stereo not given)	0.012
CN(Cc1ccccc1)C1(C(=O)N2CCC[C@H]2CO)Cc2ccccc2C1	0.526
COc1cc(C(=O)N(Cc2ccncc2)Cc2cccc(OCCc3ccc(F)cc3)c2)cc(OC)c1OC	-0.016
O=C(c1ccc(NC2CC2)nc1)N1CCCC(c2ccccc2)CC1 (stereo not given)	0.007
C=CC[C@@H]1CC=C[C@@H](C)N1C(=O)CC1(c2ccccc2)CC(=O)N(CCCOc2cccnc2)C1=O (stereo not given in full)	0.004
COc1cc(CC2(CCC(=O)N3CCC(Oc4cccc(Cl)c4)CC3)CCC(=O)N2)ccc1F (stereo not given)	-0.042
O=C(CC(c1ccccc1)c1ccccc1Cl)N1CCCC1 (stereo not given)	0.003
Cc1cc(OCc2cc(C(=O)N(C)Cc3ccccn3)no2)cc(C)c1Cl	0.001
O=C(c1coc(COc2cccc(F)c2)n1)N1CC[C@@H]2CCCC[C@H]2C1	0.007
Cc1cccc(C(=O)NCc2nc(-c3ccccc3NC(=O)CC3CCCC3)oc2C)n1	-0.003
